Self-cleavage data for 56 variants are collected here from the RNAGym collection of RNA variant scans (doi:10.7554/elife.90254).

To fix the notation:
B1: LINE1-mini (parent)
chain: GGCAGAGCUCAACACAGCGUGGCAAAGUGGCUGUGGCUAGACUGCC

The source gives no read counts; variants with many changes may rest on few reads.

Variants of B1 are the subject of the series. Kind of series: self-cleavage, relative activity (ratio to wild type); higher = more cleavage; in vitro, sequencing; the parent is a self-cleaving ribozyme.
In the case of GGCAGAGCUCAACACAGCGUGGCAACGUGGCAGUGGCUAUACGGCC [A26C U32A G40U U43G], the self-cleavage was 0.01. As to GGCAGAGCUCAACACAGCGUGGCAACAUGGCUGCGCCUAGACUGCC [A26C G27A U34C G36C], the self-cleavage is 0.02.

Consider GGCAGAGCUCAACACAGCGUGGCAUUGUGGCUGUGGCGAGACUGCC [A25U A26U U38G], for which the self-cleavage turned out to be 0.03. The figure for GGCAGAGCUCAACACAGCGUGGCAGGGUGGCUGUGGCUAGACUACC [A25G A26G G44A] is 0.2; for GGCAGAGCUCAACACAGCGUGGCACAGUGGCUGUGGCUAUACUGCU [A25C G40U C46U] it is 0.12. GGCAGAGCUCAACACAGCGUGGCAACGUGGCUGUGGCAAAACUGCC [A26C U38A G40A]: the self-cleavage came to 0.13. For GGCAGAGCUCAACACAGCGUGGCAUAGUGGAUGUGGCUAGACUGCU [A25U C31A C46U], the self-cleavage was found to be 0.01.

For the variant GGCAGAGCUCAACACAGCGUGGCACAGUGGCUGUGGGUAGUUUGCC [A25C C37G A41U C42U], the self-cleavage stood at 0.02.

As for GGCAGAGCUCAACACAGCGUGGCACAGCGCCUGUGGCUAGACUGCC [A25C U28C G30C], the self-cleavage stood at 0.7. Take GGCAGAGCUCAACACAGCGUGGCAACGCGGCUAUGGCUAGACUGCC [A26C U28C G33A]: the self-cleavage came out at 0.54. Take GGCAGAGCUCAACACAGCGUGGCAGAGUGGCUCCGGCUAGACUGCU [A25G G33C U34C C46U]: the self-cleavage amounted to 0.03. Take GGCAGAGCUCAACACAGCGUGGCAACGUGUCUGUGGCUAAACUGCC [A26C G30U G40A]: the self-cleavage was determined as 0.07. The result for GGCAGAGCUCAACACAGCGUGGCAACGUGGCUGUGUCUAGACUACC [A26C G36U G44A] reads 0.15; that for GGCAGAGCUCAACACAGCGUGGCACAGUGGCGGUGGCUAGACCGCC [A25C U32G U43C], 0.19; that for GGCAGAGCUCAACACAGCGUGGCAGAGUGGCUUUGGGUAGACUGCC [A25G G33U C37G], 0.02.

In the case of GGCAGAGCUCAACACAGCGUGGCAUAGUGGCUGUGGCUUGACUGCA [A25U A39U C46A], the self-cleavage amounted to 0.31. GGCAGAGCUCAACACAGCGUGGCAACGUGGCUGUACCUAGACUGCC [A26C G35A G36C]: the self-cleavage is 0.04. Consider GGCAGAGCUCAACACAGCGUGGCAACGUGGCUGUAUCUAGACUGCC [A26C G35A G36U], for which the self-cleavage worked out at 0.08. Turning to GGCAGAGCUCAACACAGCGUGGCACAGUGGCGGUGGCUAGCCUGCC [A25C U32G A41C], the self-cleavage stood at 0.04.

With GGCAGAGCUCAACACAGCGUGGCAGAGUGGCUGUGACUAGACUGCA [A25G G36A C46A], the self-cleavage worked out at 0.05.

Turning to GGCAGAGCUCAACACAGCGUGGCAUAGUGGCUGUGCCUAAACUGCC [A25U G36C G40A], the self-cleavage came out at 0.15. The figure for GGCAGAGCUCAACACAGCGUGGCUAAGUUUCUGGGGCUAGACUGCC [A24U G29U G30U U34G] is 0.09; for GGCAGAGCUCAACACAGCGUGGCAUCGUGUCUGUGGCUAGACUGCC [A25U A26C G30U] it is 0.64. Turning to GGCAGAGCUCAACACAGCGUGGCAGACGGGCUGUGGCUUGACUGCC [A25G G27C U28G A39U], the self-cleavage worked out at 0.1.

Regarding GGCAGAGCUCAACACAGCGUGGCUAAGUGUCUGUGGCUAGACUCUC [A24U G30U G44C C45U], the self-cleavage is 0.05. GGCAGAGCUCAACACAGCGUGGCAGAGGGGCUGUUACUAGACUGUC [A25G U28G G35U G36A C45U]: the self-cleavage was 0.02. Turning to GGCAGAGCUCAACACAGCGUGGCAGAGUGGCUGUGGCUAAACUGGC [A25G G40A C45G], the self-cleavage is 0.06.

Take GGCAGAGCUCAACACAGCGUGGCUAAGAGGCAGUGGCUAGACUGCC [A24U U28A U32A]: the self-cleavage stood at 0.04. With GGCAGAGCUCAACACAGCGUGGCACAGUCGCUGUGUCUAGACUGCC [A25C G29C G36U], the self-cleavage amounted to 0.02. The figure for GGCAGAGCUCAACACAGCGUGGCAGAGUAGCUGUGGCCAGACUGCC [A25G G29A U38C] is 0.43; for GGCAGAGCUCAACACAGCGUGGCUAAUAAGCUGUGGCUAGACUGCC [A24U G27U U28A G29A] it is 2.23; for GGCAGAGCUCAACACAGCGUGGCAUAGCGGCUGCGGCUAGACUGCC [A25U U28C U34C] it is 0.23. For GGCAGAGCUCAACACAGCGUGGCACAGUGGCUGUGGCUAGCAUGCA [A25C A41C C42A C46A], the self-cleavage came to 0. For the variant GGCAGAGCUCAACACAGCGUGGCAGAGUGGCGGUGGAUAGACUGCC [A25G U32G C37A], the self-cleavage was 0.1.

With GGCAGAGCUCAACACAGCGUGGCAGAGUGGCGGUGGUUAGACUGCC [A25G U32G C37U], the self-cleavage was 0.15. Take GGCAGAGCUCAACACAGCGUGGCAUAGUGGCGGUGUCUAGACUGCC [A25U U32G G36U]: the self-cleavage turned out to be 0.02. In the case of GGCAGAGCUCAACACAGCGUGGCUAAUUGGCUAUGGCUAGACUGCC [A24U G27U G33A], the self-cleavage amounted to 0.01. For the variant GGCAGAGCUCAACACAGCGUGGCAACGUGGCUGUUGGUAGACUGCC [A26C G35U C37G], the self-cleavage worked out at 0.08. The result for GGCAGAGCUCAACACAGCGUGGCAACGUGGCUUUGGCUUGACUGCC [A26C G33U A39U] reads 0.04; that for GGCAGAGCUCAACACAGCGUGGCAUAGUGGCUGUUGCUAGCCUGCC [A25U G35U A41C], 0.04; that for GGCAGAGCUCAACACAGCGUGGCAGAGUGGCUGUUGCUAGACUGCG [A25G G35U C46G], 0.2. With GGCAGAGCUCAACACAGCGUGGCAUAGUGGCUGUGCCUAGGCUGCC [A25U G36C A41G], the self-cleavage was 0.07. GGCAGAGCUCAACACAGCGUGGCACGGUGGCUGUGGCUAGAGUUCC [A25C A26G C42G G44U]: the self-cleavage turned out to be 0.06. As for GGCAGAGCUCAACACAGCGUGGCAACGUGCCUGUGCCAAGACUGCC [A26C G30C G36C U38A], the self-cleavage was 0.03. Turning to GGCAGAGCUCAACACAGCGUGGCAUAGUGGCUGUGUCUUGACUGCC [A25U G36U A39U], the self-cleavage worked out at 0.12. With GGCAGAGCUCAACACAGCGUGGCAUAGCGGCUGUGGCUAUCCUGAC [A25U U28C G40U A41C C45A], the self-cleavage came to 0.28.

For the variant GGCAGAGCUCAACACAGCGUGGCAACGAGGCUGUGGCUCGACUGCU [A26C U28A A39C C46U], the self-cleavage turned out to be 0.42. For the variant GGCAGAGCUCAACACAGCGUGGCUAAGUUGCUGUGGCUAGACUGCU [A24U G29U C46U], the self-cleavage was found to be 0.71. For GGCAGAGCUCAACACAGCGUGGCAGAAUGGCUGUGGCUUGACUGCC [A25G G27A A39U], the self-cleavage stood at 0.52. On to GGCAGAGCUCAACACAGCGUGGCAACGUGACUGUGGCGAGACUGCC [A26C G30A U38G], for which the self-cleavage was 0.03. On to GGCAGAGCUCAACACAGCGUGGCUAAGAGGCUGUGGCUAGACGGCC [A24U U28A U43G], for which the self-cleavage came out at 0. On to GGCAGAGCUCAACACAGCGUGGCACAGUGGCUCCUGCUAGACUGCC [A25C G33C U34C G35U], for which the self-cleavage worked out at 0.23.

Consider GGCAGAGCUCAACACAGCGUGGCUAAGUGGCUAUGUGUAGAAUGCC [A24U G33A G36U C37G C42A], for which the self-cleavage turned out to be 0.07. Turning to GGCAGAGCUCAACACAGCGUGGCAUAGUAGCUGGGGCUAGAAUGCC [A25U G29A U34G C42A], the self-cleavage was 0.06. For the variant GGCAGAGCUCAACACAGCGUGGCUAAGUGGUUGAGGCUAGACUGGG [A24U C31U U34A C45G C46G], the self-cleavage worked out at 0.02. As to GGCAGAGCUCAACACAGCGUGGCAACGUGGCUGCGGCUAGACUCCC [A26C U34C G44C], the self-cleavage turned out to be 0.06.
